Results reported in PubChem BioAssay AID504832 (National Center for Advancing Translational Sciences (NCATS), 2011).
Hit rate of the full screen: of about 310,000 compounds, about 18,000 (5.8%) were called active. Inconclusive means that the source gave no clear call. Such entries were picked first, then a sample of the others. The call rests on the fitted dose curve; in most records, active means well fitted inhibition curve with a large enough effect; inconclusive means small, poorly fitted or top-dose-only effect, or another doubt; inactive means no such curve, though single readings can be large or run the other way. Potencies of inconclusive entries are left out as doubtful fits.

Assay: Primary qHTS for delayed death inhibitors of the malarial parasite plastid, 48 hour incubation
Conditions: P. falciparum luciferase growth in erythrocytes; series mostly up to 28.7 µM
In short: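 Growth was read as firefly luciferase luminescence after a 48 h, 37 C, 5% CO2 exposure of compounds to reporter-bearing P. falciparum cultures (0.1% parasitemia, 2% hematocrit final) in Albumax-supplemented RPMI 1640.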
Potency means the concentration at half of the fitted maximal effect; tags describe the fitted curve by direction and shape.

Row | SMILES | Potency
1 | O=S(=O)(c1ccccc1)N1CCN(c2ccnc3cc(Cl)ccc23)CC1 | inconclusive [inhibitor, single point]
2 | CCOC(=O)N1CCN(C(=O)c2ccc(Cn3c(=S)[nH]c4cc(OCC)c(OCC)cc4c3=O)cc2)CC1 | inconclusive [inhibitor, single point]
3 | O=C(c1ccco1)N1CCN(C(=O)C2CC(c3ccc(F)cc3)=NO2)CC1 (stereo not drawn) | inconclusive [inhibitor, full curve, poor fit]
4 | COc1ccc(S(=O)(=O)N2CCC(C(=O)Nc3ccc(F)cc3)CC2)c2cccnc12 | active: 1.04 µM
5 | CCc1ccc2[nH]c(C(=O)Nc3ccc(F)cc3Br)cc2c1 | inactive
6 | CCCCn1c(O)c(C(C)=NCCCn2ccnc2)c(=O)[nH]c1=O | inactive
7 | COc1cccc(NC(=S)N2CCCN(Cc3ccc(F)cc3)C2)c1 | inconclusive [inhibitor, partial curve]
8 | CC1=C(C(=O)OCC2CCCO2)C(c2cccc(C(F)(F)F)c2)C2=C(CC(c3ccco3)CC2=O)N1 (stereo not drawn) | active: 13.1 µM
9 | CCCNC(=O)COC(=O)c1c2c(nc3ccccc13)CCC2 | inconclusive [inhibitor, single point]
10 | CC(=O)Nc1ccc(NC(=O)C(C)Sc2nnc(C3CC3)n2-c2ccccc2)cc1 (stereo not drawn) | inconclusive [inhibitor, single point]
11 | Cc1ccn2c(CNCC3OCCc4ccccc43)c(C(=O)N3CCCCCC3)nc2c1 (stereo not drawn) | inconclusive [inhibitor, partial curve, poor fit]
12 | CC(C)c1onc(C(=O)N2CCN(Cc3ccccc3)CC2)c1[N+](=O)[O-] | inconclusive [inhibitor, full curve, poor fit]
13 | CC(C)(C)NC(=O)CSc1nncn1-c1ccccc1 | inconclusive [inhibitor, partial curve, poor fit]
14 | CC(=O)Nc1ccc(/C=C(\C#N)C(=O)NC2CCCCC2C)cc1 (stereo not drawn) | inconclusive [inhibitor, single point]
15 | O=C(NCc1ccccc1)C(c1ccncc1)N(C(=O)c1csnn1)c1ccccc1F (stereo not drawn) | inconclusive [inhibitor, single point]
16 | Cn1nc(C(F)(F)F)c2cc(C(=O)Nc3ccc(F)cc3F)sc21 | inconclusive [inhibitor, single point]
17 | Cc1cc(=O)oc2c(C)c(OC(C)C(=O)NCCN3CCOCC3)ccc12 (stereo not drawn) | inactive
18 | Nc1nc2c(s1)CC(c1ccccc1)CC2 (stereo not drawn) | inactive
19 | CCN(CC)S(=O)(=O)c1ccc2c(c1)nc(CCC(=O)OCC(=O)Nc1cc(Cl)cc(Cl)c1)n2C | inactive
20 | COc1cc2c(cc1OC)C(c1cccc(Br)c1)CC(=O)N2 (stereo not drawn) | inactive
21 | CN(C)c1ccc(N2C(=NC(=O)C3CCCO3)SC3CS(=O)(=O)CC32)cc1 (stereo not drawn) | inactive
22 | CN(C)c1ccnc(N(Cc2ccccc2)Cc2ccccc2)c1C#N | inconclusive [inhibitor, partial curve, poor fit]

Row | SMILES | Potency
23 | Cc1ccc(S(=O)(=O)c2ccc([N+](=O)[O-])cn2)cc1 | inconclusive [inhibitor, single point]
24 | COc1ccc(C(=O)NCc2cc(C(C)C)no2)cc1OC1CCN(C(C)C)CC1 | inconclusive [inhibitor, partial curve]
25 | CN1C(=O)C(CC(=O)Nc2ccccc2F)N(NC(=O)c2ccc(Br)cc2)C1=S (stereo not drawn) | inconclusive [inhibitor, single point]
26 | O=C(Nc1cc(Br)ccc1O)C1CC(c2c(F)cccc2Cl)=NO1 (stereo not drawn) | inactive
27 | CCOc1ccc2[nH]cc(C(=O)N3CCN(CC)CC3)c(=O)c2c1 | inconclusive [inhibitor, single point]
28 | Cc1ccc(C)c(NC(=O)c2sc(Cl)nc2C)c1 | inconclusive [inhibitor, partial curve, poor fit]
29 | CC(/C=N/NC(=O)c1nnn(-c2nonc2N)c1CN(C)C)=C\c1ccco1 | inconclusive [inhibitor, single point]
30 | O=C(N/C(=C/c1cccc([N+](=O)[O-])c1)C(=O)N1CCOCC1)c1ccccc1Br | inactive
31 | COc1ccc(N=C2NC(=O)/C(=C/c3ccco3)S2)cc1 | inconclusive [inhibitor, partial curve]
32 | COc1ccc(C2(c3ccc(OC)cc3)NC(=O)N(CC(=O)NC3CCCC3)C2=O)cc1 | inactive
33 | c1ccc(-c2ccc(-n3ccnc3)cc2)cc1 | inconclusive [inhibitor, partial curve]
34 | CCOc1ccc(NN=C(C(=O)OC)C(=O)OC)c([N+](=O)[O-])c1 | inconclusive [inhibitor, partial curve, poor fit]
35 | CCn1c2c(c3cc(Br)ccc31)CCC/C2=N\O | inconclusive [inhibitor, single point]
36 | C/C(=N/NC(=O)c1ccc(NC(=O)c2ccc(F)cc2)cc1)c1ccccc1 | inconclusive [inhibitor, single point]
37 | COc1ccc(N(CC(=O)NCCSCc2c(F)cccc2Cl)S(C)(=O)=O)cc1OC | inactive
38 | C=C(CC1([C@@H](NP(=O)(c2ccccc2)c2ccccc2)[C@H]2C[C@@H]2CCCC)CC1)c1ccccc1 | active: 5.86 µM
39 | CCc1ccc2nc(N(CCCN(C)C)C(=O)c3ccc(S(=O)(=O)N4CCCc5ccccc54)cc3)sc2c1 | inconclusive [inhibitor, single point]
40 | CC(C)(Oc1ccc(Cl)cc1)C(=O)NC1=NN(c2ccccc2)C(=O)C1 | inconclusive [inhibitor, partial curve, poor fit]
41 | Cc1cc([N+](=O)[O-])ccc1NC(=O)c1cccc(NC(=O)C(C)C)c1 | inactive
42 | CC(=O)Nc1ccc(SC[C@H](c2ccccc2)N2CCN(CCc3ccccc3)CCC2=O)cc1 | active: 13.1 µM
43 | CCOc1cc(/C=C\[N+](=O)[O-])ccc1OCC(=O)N1CCOCC1 | inconclusive [inhibitor, partial curve]
